{
  "source": "PubChem BioAssay AID686970",
  "about": "(National Center for Advancing Translational Sciences (NCATS), 2013)",
  "note": "The whole screen tested about 360,000 compounds, of which about 6,000 (1.7%) were called active. Inconclusive results, whose numbers are uncertain, are shown with a selection of clear calls. The call rests on the fitted dose curve; in most records, active means well fitted cell-killing curve with a large enough effect; inconclusive means small, poorly fitted or top-dose-only effect, or effect the other way; inactive means flat fitted curve, though single readings scatter. No potency is given beside an inconclusive call; the fits are too rough. Potency means the concentration at half of the fitted maximal effect; tags describe the fitted curve by direction and shape.",
  "data": [
    {"experiment": "qHTS for induction of synthetic lethality in tumor cells producing 2HG: qHTS for the HT-1080-NT fibrosarcoma cell line;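 further: NT is the 2HG producing partner of a matched IDH1 knockdown line; nearly all actives have a fitted effect of over 55% in size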", "conditions": "HT-1080-NT fibrosarcoma viability, CellTiter-Glo ATP luminescence, 48 h; series mostly up to 46.1 µM", "outline": "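HT-1080-NT; 750 cells/well; 5% FBS RPMI; 48 h compound, 37 degrees C; CellTiter-Glo luminescence; curve fitting and curve-class assignment.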", "values": [
      {"smiles": "CCc1cccc2c(C(=O)CN3C(=O)NC(C)(c4cccc5ccccc45)C3=O)c[nH]c12", "note": "(centres undefined)", "Potency": "inconclusive [cytotoxic, single point]"},
      {"smiles": "CC(=O)C[C@H](O)CC(=O)[C@@H]1OC(=O)CCCCCc2ccccc21", "Potency": "inactive"},
      {"smiles": "CCN(CC)C(=O)C1CCCN(Cc2ccc(N(C)C)cc2)C1", "note": "(centres undefined)", "Potency": "inconclusive [rising, single point]"},
      {"smiles": "O=S(=O)(NCC(c1ccco1)N1CCc2ccccc2C1)c1ccc(Br)cc1", "note": "(centres undefined)", "Potency": "inconclusive [cytotoxic, single point]"},
      {"smiles": "Cc1ccc(Nc2nc(N/N=C\\c3ccc4c(c3)OCO4)nc(N3CCOCC3)n2)cc1", "Potency": "inconclusive [cytotoxic, single point]"},
      {"smiles": "Cc1cc(C)c(C)c(S(=O)(=O)N2CCN(C(=O)c3cc(=O)[nH]c4ccccc34)CC2)c1C", "Potency": "inconclusive [cytotoxic, single point]"},
      {"smiles": "O=C(COc1ccc(C(=O)NCc2cccnc2)cc1)Nc1cccc(C(F)(F)F)c1", "Potency": "inconclusive [cytotoxic, single point]"},
      {"smiles": "COc1ccccc1NC(=O)CSc1nnc(CNC(=O)c2ccco2)o1", "Potency": "inactive"},
      {"smiles": "Cc1ccccc1NC(=O)C(Cc1ccccc1)n1cccc1", "note": "(centres undefined)", "Potency": "inactive"},
      {"smiles": "Cc1onc(-c2ccccc2Cl)c1C(=O)Oc1cc(N)n(S(=O)(=O)c2ccc(F)cc2)n1", "Potency": "inconclusive [cytotoxic, single point]"},
      {"smiles": "N#Cc1ccc(C(=O)N2CCCCC2c2cc(C(=O)Nc3ccc4c(c3)OCO4)no2)cc1", "note": "(centres undefined)", "Potency": "inconclusive [rising, single point]"},
      {"smiles": "Cc1ccsc1C1NC(=O)c2c(sc3c2CCN(C)C3)N1", "note": "(centres undefined)", "Potency": "inconclusive [rising, single point]"},
      {"smiles": "Cc1ccc(NCC(=O)N/N=C\\C(Br)=C\\c2ccccc2)cc1", "Potency": "inconclusive [cytotoxic, single point]"},
      {"smiles": "CC(C)(C)c1cc(Cc2ccccc2)[nH]n1", "Potency": "inactive"},
      {"smiles": "CCn1c(=O)c2sccc2n(CC(=O)NCCC2=CCCCC2)c1=O", "Potency": "inconclusive [cytotoxic, single point]"},
      {"smiles": "CCCOc1ccc(-c2nc(C#N)c(NCCCn3ccnc3)o2)cc1", "Potency": "inconclusive [cytotoxic, single point]"},
      {"smiles": "COc1ccc(NC(C)=O)cc1NC(C)C(=O)Nc1cccc2ccccc12", "note": "(centres undefined)", "Potency": "inactive"},
      {"smiles": "Cc1[nH]n(-c2ccccc2)c(=O)c1/C=N/NC(=O)c1ccccc1F", "Potency": "inconclusive [cytotoxic, partial curve]"},
      {"smiles": "CC(C)c1nc(SCC(=O)N2CCCc3ccccc32)c2c(=O)n(C)c(=O)n(C)c2n1", "Potency": "inconclusive [rising, single point]"}
    ]}
  ]
}
